Measurements as given in PubChem BioAssay AID588855 (National Center for Advancing Translational Sciences (NCATS), 2011).
Among all 410,000 compounds or so, about 5,000 (1.2%) were called active. Inconclusive means that the source gave no clear call. Such entries were picked first, then a sample of the others. The call rests on the fitted dose curve; in most records, active means well fitted inhibition curve with a large enough effect; inconclusive means small, poorly fitted or top-dose-only effect; inactive means no such curve, though single readings can be large or run the other way. A potency beside an inconclusive call is a rough fit, not a confirmed value.

assay: qHTS for Inhibitors of TGF-b; details: HepG2 CAGA-GFP TGF-b/SMAD3 reporter, GFP fluorescence, 18 h, TGF-beta stimulated, 500 pg/mL final; series mostly up to 46.1 µM; activity, negative = inhibition: at the top concentration; further: nearly all actives have a fitted effect of over 65% in size
In short: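 First, reporter cells (HEPG2 CAGA-GFP) rested 2 h at 37 degrees C. Next, compounds were pinned in and TGF-beta added to 500 pg/mL final. After 18 h, GFP was imaged per cell and summed per well.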
On the % scale 0 is the no-effect control and ±100 the full control effect; potency means the concentration at half of the fitted maximal effect; tags describe the fitted curve by direction and shape.

For `COc1ccc(NC(=O)N(C)C[C@H]2Oc3ccc(NS(=O)(=O)c4ccc(OC)cc4)cc3C(=O)N([C@H](C)CO)C[C@@H]2C)cc1`, which Potency is on record?
The Potency was inconclusive: 6.31 µM [inhibitor, single point].

For `Cc1ccc(NC(=O)O/N=C/c2c(C)nn(C(C)(C)C)c2C)cc1Cl`, which “activity, negative = inhibition” value is on record?
The value was inactive: -10.5%.

Which “activity, negative = inhibition” value does the source give for `CCCc1nn2c(=O)cc(COC(=O)c3ccccc3NC(=O)c3ccc(Cl)cc3)nc2s1` here?
The value was inactive: 10.2%.

For `CCOC(=O)CSc1nnc(CNC(=O)c2cccs2)n1-c1cccc(C)c1`, which Potency is on record?
The Potency was inconclusive: 1.41 µM [inhibitor, partial curve].

With `CCOc1ccc(NC(=O)CN2CCCN(Cc3cc(C)ccc3C)S2(=O)=O)cc1` as the molecule, how does the Potency read?
Its Potency is inconclusive: 35.5 µM [inhibitor, single point].

Which “activity, negative = inhibition” value does the source give for `CCOC(=O)c1ccccc1NC(=O)N1CCC(CN2CCCCC2)CC1` here?
Its value is inactive: -15.5%.

With `COc1ccc(C2CC(O)(c3ccccc3)Oc3cc(OC)ccc32)cc1` (stereo not drawn) as the molecule, how does the Potency read?
The Potency was active: 17.8 µM.

Which “activity, negative = inhibition” value does the source give for `Fc1ccc(-c2csc3ncnc(Nc4ccc(N5CCOCC5)cc4)c23)cc1` here?
The value was inactive: 15%.

With `COc1ccc(CC(=O)NCC(C)(C)N2CCOCC2)cc1` as the molecule, how does the “activity, negative = inhibition” value read?
The value was inactive: 11.5%.

For `CCOC(=O)c1cccc(NC(=O)CCn2nc(C)c(S(=O)(=O)N3CCCCC3)c2C)c1`, which Potency is on record?
Its Potency is inconclusive: 35.5 µM [inhibitor, single point].

With `CCOc1ccccc1N1CCN(Cc2ccc(OC)c(OC)c2OC)CC1` as the molecule, how does the Potency read?
Its Potency is inconclusive: 3.16 µM [inhibitor, partial curve, poor fit].

With `C=CC[C@@H](Cc1ccc(F)cc1)C(=O)OC[C@H]1CCCN1C(=O)[C@H](CC=C)CC(=O)NCCO` as the molecule, how does the Potency read?
Its Potency is inconclusive: 6.31 µM [inhibitor, single point].

Which Potency does the source give for `Cc1cc(NC(=O)CSc2nc(=O)n3cc(Cl)ccc3n2)no1` here?
The Potency was inconclusive: 0.562 µM [inhibitor, partial curve, poor fit].

For `NC(=O)c1ccsc1NC(=O)c1ccc2c(c1)CCCC2`, which Potency is on record?
Its Potency is inconclusive: 35.5 µM [inhibitor, partial curve, poor fit].

Which Potency does the source give for `O=C1c2ccccc2C(=O)N1CCc1c(-c2ccccc2)[nH]c2ccccc12` here?
Its Potency is inconclusive: 35.5 µM [inhibitor, partial curve, poor fit].

Which Potency does the source give for `CN1C(=O)Cc2cc(S(=O)(=O)CCC(=O)Nc3ccc(F)c(Cl)c3)ccc21` here?
Its Potency is inconclusive: 35.5 µM [inhibitor, single point].

Which Potency does the source give for `COc1ccc(CCNC(=O)c2cccc(S(=O)(=O)N3CCCCCC3)c2)cc1` here?
Its Potency is inconclusive: 10 µM [inhibitor, partial curve, poor fit].

With `O=C(CSc1nnc(NC(=O)Nc2ccccc2)s1)Nc1cccc(F)c1` as the molecule, how does the Potency read?
Its Potency is inconclusive: 7.08 µM [inhibitor, partial curve, poor fit].
